Measurements reported in patent US20040019187A1 (published 2004).

Target: T1, human MHC class II DR protein (DRA*0101/DRB1*0401) purified from PRIESS cells (human, UniProt P01903; P01911 30-266, limits assumed)
T1 construct: mature; Detergent-solubilised native heterodimer purified on LB3.1 antibody beads; also called HLA-DR protein; MHCII
Test: SPR (BIAcore), 500RU MHCII on chip, scFv injected

Kd: 4.6 µM | koff: 0.2 s⁻¹ | kon: 43500 M⁻¹ s⁻¹
B1: MS-GPC-6 scFv (scFv)
chain: [about 100 residues not shown]GYGRYSPDLWGQGTLVTVSSAGGGSGGGGSGGGGSGGGGSDIVLTQSPATLSLSPGERATLSCRASQSVSSSYLAWYQQKPGQAPRLLIYGASSRATGVPARFSGSGSGTDFTLTISSLEPEDFAVYYCQQYSNLPFTFGQGTKVEIKRTEFDYKDDDDKGAPWSHPQFEK
